Reference: publication PMC6212790
The list shows a part of the results. At the low end of the ranking, values are background and their order means little.

Target: T1, GST-Rok-C97-191 (UniProt O34857)
T1 sequence: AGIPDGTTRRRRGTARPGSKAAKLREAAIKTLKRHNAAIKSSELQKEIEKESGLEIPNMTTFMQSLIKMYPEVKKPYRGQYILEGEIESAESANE
Assay: protein binding microarray;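 note: rank score from −0.5 (least bound) to 0.5 (best bound)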
Settings: Rok is a gene silencer of Bacillus subtilis; high values mean tight binding; most listed sequences are background and not binding sites; double strand, one strand shown

Sequence	binding signal [E-score]
ACTATTAT	0.364
AGGTAACT	0.312
ACATCGGA	0.00658
CTGTGAGA	-0.127
ACCGGATG	0.0222
GCGCGCAC	0.0896
AGTCAGTA	0.149
CCAAATCC	-0.11
ACACAACT	0.0324
ATGACTGC	0.0218
CGTCAGTA	0.011
GCGTACAA	-0.0292
CTCTCATC	0.119
GGCCTTAA	-0.234
CAGTCAAG	-0.115
AACACAAT	-0.117
CCTGACAA	-0.0451
CAATTAAG	-0.0793
TAGCATGA	0.037
GATGTTTA	0.0206
TCAAATCA	-0.157
ATAGCGCA	0.176
ATCTGTAA	0.106
TGCCGCCA	-0.101
TGGTGTAA	-0.0152

Sequence	binding signal [E-score]
CATATACA	0.22
GACAGAAA	-0.0766
ATGGACCA	-0.193
AGGCGTTG	-0.182
ACGTATAC	0.137
CACACCAA	0.0569
GATCCACA	-0.0305
GGACTCCC	-0.202
CGGGTAGA	0.165
CACTCTAA	-0.143
ACGGAGCT	-0.129
ACTCCCGC	-0.118
TAAGGCAA	0.0603
ATAAAAAA	0.271
CTGACCCC	-0.324
CACAAATC	0.0854
GAAATCCC	-0.152
CCCCTACC	-0.253
CCTCTTTC	-0.037
CCTCCACG	-0.196
CACGAGCC	-0.25
ATGACGAC	-0.13
CGACCCCA	-0.207
CATGTTCC	-0.0917
CTATAGAG	0.00791

Sequence	binding signal [E-score]
CCGGACTA	-0.0594
GTCTAAGA	-0.0359
GAACCATA	0.0821
ACTGGAAG	0.00411
GCGACCGA	-0.313
AACGATTG	0.0381
AACTATCC	0.224
GCGGATGA	-0.151
AGGCCACA	-0.202
GAGTTTCC	-0.0642
ACTAGCAG	0.138
AGTGTGAC	-0.247
AGTGTGAA	0.168
GCTGTAAC	-0.0357
CCGTGGCA	-0.196
ATGTTGAA	0.0522
AGAAGAAT	0.086
CTTATGTA	0.0579
GGGTTGCA	-0.245
TGCATCCA	-0.0993
AATCGCTG	-0.11
CAGTGAAC	-0.0197
AGTGACCC	-0.29
CTTTCAGC	-0.00114
ATAGGAGG	-0.135

Sequence	binding signal [E-score]
CGTTGCTC	-0.0643
CGTAAAGC	-0.0457
GACACGTA	-0.114
CTAGATCC	0.212
ATTGGAAA	-0.0288
CTTGTTCC	0.0569
ATCGATTC	0.123
AAGGAAGA	-0.0907
GGGATTCA	-0.147
CCAACACA	0.0764
GTGGATGA	-0.12
AAATGAGC	-0.0788
GGCCTGGA	-0.201
GCTTAGCC	-0.0474
AGCGGGAT	-0.0346
ATACCGAT	0.305
GCGAGCGC	-0.207
AACTAGCA	0.346
GGGGTTAA	-0.0586
TATAAAAA	0.244
GGCCGCCA	-0.303
AGTCTATG	-0.158
GCTAGTCC	-0.0508
AAAACATT	0.00221
CTGTCGGC	-0.0494

Sequence	binding signal [E-score]
GAAAGCTC	-0.157
AGAGGACT	-0.122
TCGTGGAA	-0.0535
CGGGCTAC	-0.0334
GCTCGCGA	-0.171
AGCGTGTA	0.0551
AAGGGTTA	-0.0955
AAATTTAA	0.299
TAAGGATA	0.0194
AGCGGCTG	-0.0881
CCTCTGCC	-0.276
AGGTTGAG	0.054
AGCACGGC	-0.202
GATTCAAA	-0.00653
GTTTTGTA	0.135
CTGCACGA	-0.102
TACTTTCA	0.174
GCTGAATA	0.196
AACTCAAT	0.0876
ACCAGAGA	0.0737
CAAGTAAA	0.272
GAGAATGA	0.00699
AACCAATG	-0.227
AAGTTGTC	0.0086
AACAGACA	0.13

Sequence	binding signal [E-score]
ATGTTGAG	0.086
AACGTCTG	-0.145
TACTTGCA	0.167
AAATGGCA	-0.0482
ATTGTTCG	0.062
AGAATGGC	-0.0476
ATGGTTGC	-0.131
GGCATTAC	0.00443
GAGCTGTA	0.0865
ATTTACTG	0.319
CTGAATCC	-0.0267
ATGAGATC	-0.0303
ATCAGGAC	-0.186
ACATATAC	0.302
CCCGCTTA	-0.206
CAATTCGA	-0.104
CCTTAAAG	-0.0637
CCCCCACG	-0.281
ACGTCACG	-0.0444
ACTTCAGG	0.0645
ACAGGCGA	-0.176
GTTGCTTA	0.137
CATCTTGC	-0.092
ACAGGCTC	-0.266
ACGCAAGG	-0.223

Sequence	binding signal [E-score]
GGTTTCAC	-0.212
AACCAAGT	-0.121
ACAGTACT	0.118
AGCGGCCA	-0.119
AGGGTAAT	0.174
ATCTGCCA	-0.000824
TTGAAAAA	0.0858
CAAGGCAA	-0.296
GAACGCCA	-0.0475
CAGATCTC	-0.12
AGAATAAA	0.0986
GCTTCGGA	0.0142
CTACCGAC	0.0745
GAAATAAC	0.164
GATTGGAC	-0.0622
GAACGTCA	-0.14
ACACAGGC	-0.235
CGTTGCGA	-0.206
AGTGAAGC	-0.199
CTATTCAG	0.102
GCAGACCC	-0.261
AACAATAC	0.238
